Over roughly 13,000 compounds, “IFI” has its median near 4; the highest 2% begin near 17. The list shows a part of the results.
Experiment: GSK_TCMDC: Inhibition Frequency Index (IFI). The number of non-kinase HTS assays where a compound showed > 50 % inhibition, expressed as a percentage of the number of such assays in which the compound was tested (-0 is zero)
Type: functional

Structure (SMILES)	IFI
CNC(=O)c1ccccc1Nc1nc(Nc2ccc(N3CCN(C)CC3)nc2)ncc1C	4%
CC1CCCCN1S(=O)(=O)c1ccc(NC(=O)c2cc(-c3ccccc3O)n[nH]2)cc1 (stereo not given)	7.46%
Cc1ccc(NC(=O)c2cccc(CN3CCCN(Cc4cccc(O)c4)CC3)c2)cc1C	6.29%
CCC(C)NC(=O)CN1CN(c2ccccc2)C2(CCN(C(=O)c3ccc4ccccc4c3)CC2)C1=O (stereo not given)	1.67%
Clc1ccc(CNCCCCCCCNCc2ccc(Cl)c(Cl)c2)cc1Cl	15%
Cc1nc(N)nc(N)c1OCc1cccc2ccccc12	1.45%
Cc1cccc2nc(-c3cccc(-c4ccc(NC(=O)Nc5cccc(C#N)c5)cc4)c3)[nH]c12	5%
O=C(C=Cc1ccc(F)cc1)N1CCN(S(=O)(=O)c2ccc(Cl)cc2)CC1	0%
CCC(C)CN1CCCN(c2ccc(NC(=O)c3cccs3)cc2)CC1 (stereo not given)	5.56%
CN(c1ncc(-c2cccc(CNCc3ccccc3O)c2)cn1)C1CCCCC1	10.5%
CC1CCc2c(C(=O)N3CCc4ccccc4C3)csc2C1 (stereo not given)	1.45%
Nc1ncc(-c2ccc(F)cc2)c2ccc(-c3cccc(F)c3)cc12	4.93%
C[C@@H](Nc1nc(NCc2ccccc2)c2sccc2n1)c1ccccc1	6.67%
O=S(=O)(Nc1ccc2nccc(N3CCNCC3)c2c1)c1ccc2c(Cl)cccc2c1	3.88%
CC1(C)NC(N)=NC(=N)N1OCCc1ccccc1	2.17%
CCN(CC)CCN(Cc1ccc(-c2ccc(C(F)(F)F)cc2)cc1)C(=O)Cn1c(CCc2cccc(F)c2F)nc(=O)c2cccnc21	9.35%
COc1ccc2c(c1)CCCC2NCCCCNC(=O)c1ccc(NC(=O)c2ccc(Cl)cc2)cc1 (stereo not given)	2.7%
COc1ccc(CCON2C(=N)N=C(N)NC2(C)C)cc1OC	3.62%
O=C(CCc1cccnc1)Nc1cccc(-c2ccc(-c3nc4cc(C(F)(F)F)ccc4[nH]3)cc2)c1	6.96%
CCOc1cc(C(=O)NCCN(C(C)C)C(C)C)ccc1-c1nc2cc(Cl)ccc2[nH]1	1.41%
O=C(NC1CCCCCC1)[C@@H]1CCCN1C(=O)c1ccc(O)c(-c2ccc(Cl)c(Cl)c2)c1	2.96%
Cc1ccc(-c2cnc3[nH]cc(-c4ccc(C(=O)O)c(C)c4)c3c2)cc1C	7.55%
Oc1ccc2[nH]c(-c3cccc(F)c3)nc2c1CNCc1ccccc1	5.22%

Structure (SMILES)	IFI
Cc1cc2c(cc1C(F)(F)F)N(C(=O)Nc1cc(OCCN(C(C)C)C(C)C)cc(C(F)(F)F)c1)CC2	6.02%
COc1cc2nc(NC3CCN(Cc4ccccc4)CC3)nc(N)c2cc1OC	3.79%
CCN(CC)CC(O)c1cc(-c2ccc(C)cc2)nc2c(C)cc(C)cc12 (stereo not given)	2.16%
O=c1cc(NCCCNC2CCOc3c(Cl)cccc32)[nH]c2ccccc12 (stereo not given)	2.88%
O=C(Nc1cccc(OCCN2CCCC2)c1)Nc1ccc(Cl)c(Cl)c1	2.92%
CCc1nc2c(N)nc(N)nc2nc1-c1ccc(OC)cc1	1.47%
O=C(/C=C/c1c(Cl)cccc1Cl)NC1CCC(CN2CCC(c3c[nH]c4ccncc34)CC2)CC1 (stereo not given)	6.34%
CC1(C)CCC(=Cc2ccc(Cl)cc2)CC1(O)Cn1ccnc1 (stereo not given)	7.25%
CC(C)(C)c1ccc(CN2CCC(CNC(=O)c3cc(-c4ccccc4F)cs3)C2)cc1 (stereo not given)	17%
Cc1cc(=NN=CC=Cc2ccccc2)c2ccc(F)cc2[nH]1	0.74%
CCNC(=O)Nc1ccc(-c2ccc(-c3nc4cccc(C)c4[nH]3)s2)cc1	4%
COc1cc2c(cc1OCCN1CCC(N3CCCCC3)CC1)N(C(=O)/C=C/c1ccccc1OC(F)(F)F)CC2	10.9%
Cc1nc(-c2cccc3c(NC(=O)N4CCc5cc6nccc(N7CCN(C)CC7)c6cc54)cccc23)no1	4.17%
COc1cccc(C(NC(=O)c2ccccc2)c2ccc3cccnc3c2O)c1 (stereo not given)	7.35%
CN1Cc2cc(NC(=O)/C=C/c3ccccc3Cl)ccc2C(C)(C)C1	0.74%
N=C(N)NC(=O)Nc1cc(Br)c(Cl)c(C(F)(F)F)c1	11.1%
O=C(NCCCCN1CCC(c2ccc3c(c2OCCO)CCCC3)CC1)c1ccc2oc(-c3ccc(C(F)(F)F)cc3)cc2c1	9.01%
COc1ccc(C(=O)CCC(=O)N(Cc2ccc(-c3ccc(CNCCc4ccc(S(C)(=O)=O)cc4)cn3)cc2)C2CCN(Cc3ccccc3)CC2)cc1F	8.39%
CCOc1ccc(-c2nonc2NC(=O)CC(C)C)cc1OCC	-0%
O=C(Nc1ccc(C(F)(F)F)cc1)c1ccc(S(=O)(=O)NC2CCN(Cc3ccccc3)C2)cc1 (stereo not given)	8.43%
COc1ccc2nc3cc(Cl)ccc3c(Nc3ccc(O)c(CNC(C)C)c3)c2c1	7.64%
CCCC(C(CC1CCC(C)CC1)C(=O)NC(CCCNc1ncccn1)C(=O)Nc1nccs1)N(O)C=O (stereo not given)	4.44%
Nc1cccc(CNCc2ccc(-c3cccc(-c4nc5cc(C(F)(F)F)ccc5[nH]4)c3)cc2)c1	15.2%

Structure (SMILES)	IFI
Cc1ccc2nc(-c3ccc(C(=O)NCc4ccc(Cl)c(Cl)c4)cc3)[nH]c2c1C	2.9%
c1ccc(C(c2ccccc2)N2CCN(C(c3cccnc3)c3nnnn3C3CCCC3)CC2)cc1 (stereo not given)	2.44%
N=C(Cc1ccc(Cl)cc1)NCCN1CCCCCC1	0.71%
CC[C@H](NC(=O)c1c(CN2CCC(N3CCCCC3)CC2)c(-c2ccccc2)nc2c(Cl)c(O)ccc12)c1ccccc1	0.72%
Cc1nnc2sc(-c3cccc(NC(=O)c4ccc(N5CCCCC5)c([N+](=O)[O-])c4)c3)nn12	1.47%
O=C(n1c(-c2cc3ccccc3n2C(=O)C(F)(F)F)cc2ccccc21)C(F)(F)F	9.79%
O=C(/C=C/c1ccc(Cl)c(Cl)c1)NCCCCCCN1CCCN(C(=O)Nc2cccc(C(F)(F)F)c2)CC1	8.26%
CCCC(=O)NC(c1ccc(C)cc1)c1ccc2cccnc2c1O (stereo not given)	5.07%
CCn1c(SCc2ccc(F)cc2)nc2sc3c(c2c1=O)CCN(C)C3	0.85%
COc1ccc2nccc([C@@H](O)CN3CCC(NS(=O)(=O)c4cc5c(cc4Cl)SCC(=O)N5)CC3)c2c1	0.74%
O=C(Nc1cccc(Cl)c1)N[C@H]1CCN(Cc2ccc(OCCCN3CCCCC3)cc2)C1	5.63%
CCCOc1cc2c(cc1OCCC)C(C=Cc1ccc(Cl)cc1Cl)=NC(C)C2 (stereo not given)	19%
CC(C)CCNC(=N)Nc1ccc(OCCCCCOc2ccc(NC(=N)NCCC(C)C)cc2)cc1	6.47%
Cc1cccc2nc(-c3ccc(-c4ccc(CN5CCCC(O)C5)cc4)cc3)[nH]c12 (stereo not given)	2.82%
CC(C)(C)COC(=O)c1ccc(NC(=O)N[C@@H](Cc2ccc(O)cc2)C(=O)NC2CCN(Cc3ccc(O)cc3)C2)cc1 (stereo not given in full)	3.4%
CC(C)C[C@H](NC(=O)c1ccc(OCCN2CCOCC2)cc1)C(=O)N[C@H](/C=N/N1CCN(C)C1=O)CCc1ccccc1	2.75%
CCCCCn1c(Sc2ccc(C#N)c([N+](=O)[O-])c2)nnc1-c1cc(OC)cc(OC)c1	6.43%
Cc1ccccc1N1CCN(c2ccc(C(=O)Nc3ccccc3)cc2)CC1	-0%
CN(C)CCNC(=O)c1ccc2c(c1)ncn2-c1cc(OCc2ccccc2C(F)(F)F)c(C(N)=O)s1.CN(C)CCNC(=O)c1ccc2ncn(-c3cc(OCc4ccccc4C(F)(F)F)c(C(N)=O)s3)c2c1	3.68%
CCc1c(C)nc(-n2nc(C)cc2NC(=O)CC(c2ccccc2)c2ccccc2)[nH]c1=O	9.8%
CN(C(=O)c1nn(-c2ccccn2)c2nccc(-c3cccs3)c12)C1CCCCC1	7.14%
COc1cc(Nc2nccc(N3CCC(NC(=O)Nc4cccc(C(C)=O)c4)C3)n2)cc(OC)c1OC (stereo not given)	4.62%
CC(=O)Nc1ccc(C(=O)Nc2cccc(-c3cccc(-c4nc5cc(F)ccc5[nH]4)c3)c2)cn1	0.9%

Structure (SMILES)	IFI
CCc1cn2c3c(cc(C(=O)N[C@@H](Cc4ccccc4)[C@H](O)CNC4CCC4)cc13)N(C)S(=O)(=O)CC2	4.41%
CCCNC(=O)c1cncc(-c2cccc(CNC3Cc4ccccc4C3)c2)c1	4.55%
COc1ccc(-c2ccc(NC(=O)c3cccc(Cl)c3)cc2)cc1CN1CCC(O)CC1	5.26%
CCCN(CCC)C(=O)c1cc(-c2cccc(C)c2)nc2ccccc12	5.88%
CCCCc1ccc(CCNCCCCCCNCCc2ccc(O)c(O)c2)cc1	10.3%
COc1ccc(C2CC(c3cccs3)=NN2C(=O)COc2cccc3c2CCCC3O)cc1OC (stereo not given)	0%
CS(=O)(=O)N1CC2(CCN(CCC(NC(=O)NCc3ccc(Cl)c(Cl)c3)c3ccc(Cl)c(Cl)c3)CC2)c2ccccc21 (stereo not given)	5.44%
Cc1cccc2nc(-c3ccc(-c4ccc(NC(=O)CN5CCN(C)CC5)cc4)s3)[nH]c12	8.11%
Brc1ccccc1CNc1ccnc(NCCn2ccnc2)n1	2.08%
CC1(C)NC(N)=NC(=N)N1OCCSc1ccccc1	3.73%
CCC1(CC)NC(N)=NC(=N)N1OCc1ccc(Cl)c(Cl)c1	5.97%
CCCCc1cc(=O)oc2cc(C)cc(OCc3ccccc3F)c12	2.05%
Cc1cccc2nc(-c3ccc(-c4cccc(CNCCCN5CCCC5=O)c4)cc3)[nH]c12	3.96%
FC(F)(F)c1ccc2[nH]c(-c3cccc(-c4cccc(CNCCN5CCNCC5)c4)c3)nc2c1	12.8%
NOCCCCOc1ccc(Cl)cc1	-0%
Cc1noc(-c2cccs2)c1C(=O)NCCc1cccc(Cl)c1	-0%
CCNc1cc(C(=O)N[C@@H](Cc2cc(F)cc(F)c2)[C@H](O)CNCc2cccc(C(F)(F)F)c2)cc(N2CCCCS2(=O)=O)c1	5.67%
COc1cc(CN=C(S)NN=C(C)c2ccccn2)cc(OC)c1OC	5.97%
CC(=O)Nc1ncc(C(=O)Nc2cccc(-c3ccc(-c4nc5ccccc5[nH]4)cc3)c2)s1	6.48%
COc1ccc(NC(=O)[C@H](CC(C)C)Nc2cc(C)nc(NCCOc3ccccc3)n2)cc1	11.6%
COc1ccc2nccc([C@@H](O)CN3CCC(NCc4ccc5c(c4)nnn5C(C)C)CC3)c2c1	2.14%
